In ChEMBL document CHEMBL1201862, “PubChem BioAssay data set” (2004):
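Cells were grown in 96-well plates and exposed to each compound for 48 hours at five concentrations; endpoints were interpolated linearly between bracketing concentrations, or set to the highest concentration if not reached. GI50 marks 50% less growth.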 The source made the active and inactive calls. No stated cut-off is given here; in the data, active = GI50 up to about 1.1 µM and inactive = higher.

tested on: NCI-H322M; assay: NCI anticancer screen, dose series, 48 h

Compound | GI50
O=C(Nc1ccc(Br)c2ccccc12)c1ccc2ccccc2c1O | inactive: 2.77 µM
O=C(O)c1cc(Cl)cc(Cc2cc(Cl)cc(C(=O)O)c2O)c1O | inactive: > 100 µM
COc1ccc(Cc2ccccc2C(=O)O)c2ccccc12 | inactive: 37.3 µM
Cc1cc(=O)oc2cc(OS(C)(=O)=O)ccc12 | inactive: > 100 µM
C=C1CC(COc2cc(=O)oc3ccccc23)(c2ccccc2)OC1=O (stereo unspecified) | inactive: 12.8 µM
NC(=O)COc1ccccc1 | inactive: > 100 µM
CC(=O)N(C(C)=O)n1c(-c2ccccc2)n[nH]c1=O | inactive: > 100 µM
O=C1/C(=C/c2ccc(Cl)cc2)Sc2scc(-c3cccc([N+](=O)[O-])c3)[n+]21 | inactive: 14.9 µM
CCOP(=O)(CCCC(O)CNc1nc(N)nc(Cl)c1/N=N/c1ccc(Cl)cc1)OCC (stereo unspecified) | inactive: 14.9 µM
CCOC(=O)c1nnsc1NN | inactive: > 100 µM
CC12OC3(C)OC(=O)C(c4ccccc4)(O1)C3(C)O2 (stereo unspecified) | inactive: > 100 µM
C=C1C(=O)OC2CC(C)C(/C=C/C(C)=O)=CCC12 (stereo unspecified) | inactive: > 100 µM
COC(=O)Cc1c([C@H]2[C@H](CC(=O)OC)c3ccccc3N2C(C)=O)[nH]c2ccccc12 | inactive: > 100 µM
COc1cc2c(cc1O)C=NCC2 | inactive: > 100 µM
CN1C2CCC1/C(=C/c1cccc3c1OCO3)C(=O)/C2=C\c1cccc2c1OCO2 | inactive: > 100 µM
COc1cccc(/C=N/NC(=O)CN(C)C)c1O | inactive: > 100 µM
CCOC(=O)c1sc2nc(SC)nc(N3CCCCC3)c2c1N | inactive: > 100 µM
Nc1nc(Cl)cc(NCC2(CO)CCC(Cc3ccccc3)C2)n1 (stereo unspecified) | inactive: 23.3 µM
O=S(=O)(CC#CCS(=O)(=O)c1ccccc1)c1ccccc1 | inactive: 16.7 µM
OCCNC1c2cc(Cl)ccc2-c2c(Cl)cc(Cl)cc21 (stereo unspecified) | inactive: 38.7 µM
CCN(CC)C(=S)N/N=C/c1cc([N+](=O)[O-])ccc1O | inactive: 7.19 µM
Cc1ccc2cccc(-c3cccc4ccccc34)c2n1 | inactive: 25.4 µM
COc1ccc(C(=C(C#N)C#N)c2ccc(OC)cc2)cc1 | inactive: > 100 µM
COC(=O)c1c(OC)cc2cc3c(c(O)c2c1C)C(=O)C1(O)C(=O)C=C(OC)C(OC(=O)CC(C)N)=C1C3=O (stereo unspecified) | inactive: 10.9 µM

Compound | GI50
CC1(c2cccc(C3CCC4(C=CC3=O)OCCO4)c2)OCCO1 (stereo unspecified) | inactive: 20.7 µM
CC(=O)OCC(=O)OC[C@H](OCc1ccccc1)[C@@H]1[C@H](OC(C)=O)C(=O)N1Cc1ccccc1 | inactive: > 100 µM
CN(C)c1ccc(/C=C(\NC(=O)c2ccccc2)C(=O)NCC(=O)O)cc1 | inactive: > 100 µM
O=c1nc(N2CCN(c3ccccc3)CC2)ccn1C1OC(CO)C(O)C1O (stereo unspecified) | inactive: > 100 µM
CCCCCCCCCCNCCSSCc1ccc(Cl)cc1 | inactive: 3.16 µM
O=C(CCl)Nc1ccc(C(=O)N/N=C/c2ccc(Cl)cc2)cc1 | inactive: 12.6 µM
O=C(N=C1N(c2ccccc2)C(=O)C(=O)N1c1ccccc1)c1ccccc1 | inactive: 15.7 µM
C=CCc1cccc2cc(C(N)=O)c(=N)oc12 | inactive: > 100 µM
CCCCCCCCCCCCCCCC(=O)OC(COC(C)=O)CO[PH](=O)O (stereo unspecified) | inactive: 85.7 µM
COc1ccc2c(c1)C/C(=C\c1cccc3ccccc13)C2=O | inactive: 6.15 µM
Cn1ncc2cc3c(Nc4ccc(Cl)cc4)cccc3nc21 | inactive: 20.3 µM
N#C/C(=C(/S)Nc1ccccc1)c1nc2ccccc2[nH]1 | inactive: > 10 µM
Cc1nc(-c2cc3cc(Cl)ccc3oc2=O)cc2c1c(=O)oc1ccc(Cl)cc12 | inactive: > 100 µM
CSC(=S)N/N=C/c1ccccc1 | inactive: 40.5 µM
N#CCN(Cc1ccccc1)[C@H]1CCC[C@]1(O)/C=C/c1ccc2c(c1)OCO2 | inactive: 33.1 µM
Cc1c(C)c2cc3c(=O)c(CCl)coc3c(C)c2oc1=O | inactive: > 100 µM
CN(C)CC1CCCCCCCCCC(CN(C)C)C1=O (stereo unspecified) | inactive: > 100 µM
COC(=O)/C(=C(/C)c1ccco1)P(=O)(OC)OC | inactive: > 100 µM
COc1cc([C@@H]2c3cc4c(cc3[C@@H](NCc3ccc(C#N)cc3)C3COC(=O)[C@@H]32)OCO4)cc(OC)c1O (stereo partly specified) | inactive: 3.85 µM
CCOC(=O)C(CC(C)C)NC(=O)C(Cc1ccc(N(CCCl)CCCl)cc1)NC(C)=O (stereo unspecified) | inactive: 21 µM
c1cc2c(cc1C1=NCCN1)c1cc(C3=NCCN3)ccc1n2CC1CCCCC1 | inactive: 10.6 µM
O=C(CC(=O)N1N=C(c2ccccc2)C(/N=N/c2ccccc2Cl)C1=O)Nc1ccccc1Cl (stereo unspecified) | inactive: 36.5 µM
COc1cc([N+](=O)[O-])c(S(=O)(=O)O)cc1N | inactive: > 100 µM
CCOP(=O)(OCC)C(N)c1ccc(Cl)cc1 (stereo unspecified) | inactive: > 100 µM

Compound | GI50
CC1=N/C(=C\c2ccc([N+](=O)[O-])cc2)C(=O)O1 | inactive: > 100 µM
CCOP(=Nc1ccc(N(C)C)cc1)(OCC)OCC | inactive: > 100 µM
CN(C)c1ccc2c(=O)c3ccccc3oc2n1 | inactive: > 100 µM
Cc1ccc(S(=O)(=O)N/N=C2/CCC(C(C)(C)C)CC2Br)cc1 (stereo unspecified) | inactive: 44.8 µM
O=C(O)CSc1nnc(-c2ccc(O)cc2)[nH]1 | inactive: > 100 µM
CN1Cc2cc3c(cc2-c2ccccc21)OCO3 | inactive: > 100 µM
O=C1CSC(c2ccc([N+](=O)[O-])cc2)N1c1ccc(-n2c(-c3ccccc3)nc3ccccc3c2=O)cc1 (stereo unspecified) | inactive: > 100 µM
Cc1ccc2nc(/C(=C/c3ccc(/C=C(\NC(=O)c4ccccc4)c4nc5ccc(C)cc5[nH]4)c(C)c3)NC(=O)c3ccccc3)[nH]c2c1 | inactive: 25.5 µM
N#Cc1nnn(-c2ccc(Br)cc2)c1O | inactive: > 100 µM
CC(C)=CCC/C(C)=C/CC/C(C)=C/CCN(C)CCO | inactive: 11 µM
O=C1/C(=C2\SCC(=O)N2c2ccccc2)SC(=S)N1c1ccccc1 | inactive: 29.1 µM
CSC1NC=Nc2c1sc(=S)n2-c1ccccc1 (stereo unspecified) | inactive: > 100 µM
O=c1c2ccccc2ncn1COCc1ccccc1 | inactive: > 100 µM
CC(C)OP(=O)(OC(C)C)/C(F)=N/Nc1ccc([N+](=O)[O-])cc1 | inactive: > 100 µM
O=S(=O)(c1ccccc1)C(c1ccc2ccccc2n1)S(=O)(=O)c1ccccc1 | inactive: > 100 µM
CCc1nc2ccccc2c(=O)n1/N=C(\N=N\c1ccc(Cl)cc1)c1ccccc1 | inactive: 27.1 µM
O=C(N/N=C\c1ccc2ccccc2c1)Nc1ccc([N+](=O)[O-])cc1 | inactive: 31.4 µM
COC(=O)C12C3C4C1C1C2C3C41C(=O)O (stereo unspecified) | inactive: > 100 µM
CC(=O)OC(C)C(=O)C1c2cccc(O)c2C(=O)c2c(O)cc(C)cc21 (stereo unspecified) | active: 0.407 µM
CCOCc1cc(=O)c2cc3c(cc2o1)OC(C)(C)CC3 | inactive: > 100 µM
CC[C@H]1CC(=O)c2c(cc3c(c2O)C(=O)c2ccccc2C3=O)[C@@]1(C#N)C(=O)OC(C)(C)C | inactive: 3.8 µM
Cn1c(=O)c2nc3c(=O)n(C)c(=O)n(CC(N)=O)c3nc2n(C)c1=O | inactive: > 100 µM
CN(C)CCNC(=O)c1cc2ccccc2c2nc3ccccc3nc12 | active: 0.612 µM
CCC1N2CCCCC2[C@@H]2c3[nH]c4ccccc4c3CCN12 (stereo partly specified) | inactive: > 100 µM

Compound | GI50
Cc1cc([N+](=O)[O-])ccc1NC(=O)C(=O)C(C(=O)c1ccccc1-c1ccccc1)C1OC(=O)c2ccccc21 (stereo unspecified) | inactive: 15.8 µM
C=C(C)C(=O)O[C@H]1C[C@@]23O[C@@H]2CCC(=C[C@H]2OC(=O)C(=C)[C@H]12)COC3O (stereo partly specified) | inactive: > 100 µM
COC1CC(C)(NC(=O)C(F)(F)F)C2OC(c3ccccc3)OCC2O1 (stereo unspecified) | inactive: > 100 µM
O=C1c2cccnc2S(=O)(=O)N1c1ccc([N+](=O)[O-])cc1 | inactive: > 100 µM
Cc1ccc(NC(=O)c2cc3ccccc3c(/N=N/c3cc(S(=O)(=O)O)ccc3O)c2O)c(C)c1 | inactive: 14.2 µM
C[C@]12CC[C@H](O)CC1=CC[C@@H]1[C@@H]2CC[C@]2(C)C(=N/N)/C(=N\O)C[C@@H]12 | inactive: > 100 µM
O=c1oc2c/c(=C\c3ccccc3)c(=O)c3cccc1c3-2 | inactive: > 100 µM
Cc1cccc(C(=O)c2cccc3ccccc23)c1C(=O)O | inactive: > 100 µM
C/C(=C1\C(=O)C(c2ccccc2)N(c2ccccc2)C1=O)c1ccc(Cl)cc1 (stereo unspecified) | inactive: 17.3 µM
Cc1n[nH]c(=O)n1/N=C/c1cccnc1 | inactive: > 100 µM
CC1=C(C(=O)OC2CC3CCC2(C)C3(C)C)C2Nc3ccccc3N(C)C2O1 (stereo unspecified) | inactive: 2.8 µM
COc1ccc(S(=O)(=O)O)cc1NS(=O)(=O)c1ccc(C)cc1 | inactive: > 100 µM
O=C(O)C1CC(c2ccccc2)=NN1c1ccccc1 (stereo unspecified) | inactive: > 100 µM
CC[C@@H]1NC(C(=O)OC)Cc2c1[nH]c1ccccc21 (stereo partly specified) | inactive: 73.8 µM
COC1[C@@H](OC(C)=O)[C@@H](NC(=O)C(Cl)(Cl)Cl)C(I)[C@@H](N2C(=O)c3ccccc3C2=O)[C@H]1OC (stereo partly specified) | inactive: > 100 µM
O=C(O)[C@@H]1OCCOCCO[C@@H](C(=O)O)[C@H](C(=O)O)OCCOCCO[C@H]1C(=O)O | inactive: > 100 µM
CC(=O)OC1CC2CCN3C(=O)c4cc5c(cc4[C@H](C1OC(C)=O)C23)OCO5 (stereo partly specified) | inactive: > 100 µM
CC1=C[C@@H](C)C[C@]2(C)CC[C@H](O2)[C@]23CC[C@](CO)(C[C@H](O2)[C@@H]2O[C@@](C)(CC2=O)[C@@H](O)[C@H]2CC[C@@]4(CCC[C@@H](O4)[C@H](C)C(=O)O[C@H]4C[C@H]([C@]5(O)OCC[C@H](C)[C@@H]5O)O[C@H]4C=C1)O2)O3 | active: 0.279 µM
Cc1ccc2c(O)cc(-c3sccc3C)nc2n1 | active: 0.966 µM
CC1=C(N2CC2)C(=O)C(C)=C(N2CC2)C1=O | active: 0.505 µM
N#C/C(=C\c1cc(O)cc(O)c1)C(N)=O | inactive: 71.9 µM
O=C(NC1CCN(Cc2ccccc2)CC1)c1cccc(I)c1 | inactive: 28.6 µM
CN(C)Cc1cc(C(=O)/C=C/c2ccccc2Cl)cc(CN(C)C)c1O | inactive: 2.45 µM
Cc1c2cccc-2ccc2c1[nH]c1ccccc12 | inactive: 4.36 µM
